Each structure is given as a SMILES string. Hit rate of the full screen: of about 150,000 compounds, about 540 (0.36%) showed an effect of 50% or more. Some of the results follow.

This test concerns Plasmodium falciparum. Put plainly: Primary screen in NF54 nanoGlo assay, in single point, at 2uM, 72h; a lower Z score goes with more inhibition. The conditions noted are these: timepoint 72 hour. Format: functional, Erythrocyte.
As usually defined, the % Inhibition is the drop in the measured response relative to a control, in per cent. For the compound `COC(=O)c1ccc([C@H]2CC(=O)Nc3ncn(-c4cccc(OC)c4)c32)cc1`, the “% Inhibition” value is listed as 1% and the Z score is on record as -0.08.
Consider `Cc1noc(C)c1Cc1ccc(C(=O)N2C[C@@H](Oc3cccnc3)C[C@H]2C(N)=O)o1`, for which the “% Inhibition” value is 10% and the Z score is on record as -1.26.
For `COc1cccc(C(=O)N2CCC(Nc3cccc(C)n3)CC2)c1F` the same measures were -15% and 1.53.
For `CC(C)C(=O)N1CCCC[C@H]1C(=O)Nc1sc2c(c1C#N)CCCC2` the same measures were -8% and 1.23.
For `Cc1oc(CNC(=O)c2ccccc2Cl)nc1C(=O)N1CCC(C)CC1` the same measures were -1% and 0.18.
In the case of `CCc1nc2c(C(=O)N3CCOc4c(C)cc(C)cc43)ccnc2[nH]1`, the “% Inhibition” value was determined as 71% and the Z score is reported as -10.67.
As to `Cc1cnc(NC(=O)CC2(N3Cc4ccccc4C3=O)CCOCC2)s1`, the “% Inhibition” value is -18% and the Z score was 2.24.
For `Cc1csc2c(N3CCCn4nc(CCC(=O)O)cc4C3)ncnc12`, in that order: -5% and 0.91.
For `O=C(N1CC(Cc2ccsc2)C1)[C@@]12CCC[C@@H]1C2`, in that order: -6% and 0.61.
For `CCC(=O)N[C@@H](CNC(=O)OC(C)(C)C)C1CC1` the same measures were -4% and 0.48.
Turning to `COc1ccccc1OCCOc1cc(C)n(C)n1`, the “% Inhibition” value was -19% and the Z score amounted to 1.91.
For `O=S(=O)(N1CCCCCC1)N1CCOc2ccccc2C1`, in that order: -13% and 1.53.
For `CCOc1ncccc1C(=O)Nc1ccn(CCCN2CCCC2)n1`, in that order: -14% and 2.3.
In the case of `CC(C)(C)[C@@H](CO)NCc1cncs1`, the “% Inhibition” value was -12% and the Z score worked out at 1.52.
For `Cc1ccc(C(=O)Nc2nnc(-c3cccnc3)o2)cc1C`, in that order: -7% and 1.12.
On to `Cc1nc(NC(=O)N[C@H]2COC[C@H]2n2ccnn2)nn1C`, for which the “% Inhibition” value is -10% and the Z score was found to be 1.61.
As to `CNC(=O)c1cc(Br)cnc1NC`, the “% Inhibition” value was 34% and the Z score is -0.98.
For `COc1cccc2c1[C@H](C(=O)Nc1c[nH]nn1)CC2`, in that order: -7% and 0.93.
For `Cc1cc(=O)n2c3c(cc(S(=O)(=O)NCCOc4ccccc4)cc13)CCC2` the same measures were -7% and 0.84.
For `Cc1csc(S(=O)(=O)NC[C@H]2CN(C)CCN2C)c1`, the “% Inhibition” value is -9% and the Z score is given as 1.77.
For `CC(C)(C(=O)N1CCC(c2ccsc2)CC1)c1c[nH]cn1`, in that order: -1% and 0.13.
In the case of `O=S(=O)(NC1CCCC1)c1ccc2c(c1)-c1oncc1CO2`, the “% Inhibition” value is -6% and the Z score is listed as 0.88.
For `O=C(CCn1cccn1)N1CCCC[C@@H]1CCc1ccc(O)cc1`, in that order: -3% and 0.27.
For the compound `O=C(Cn1c(=O)cnc2cc(S(=O)(=O)N3CCCCC3)ccc21)Nc1ccc2c(c1)OCCO2`, the “% Inhibition” value amounted to 3% and the Z score is -0.26.
As for `CC(C)(O)C1CCCN1C(=O)NC1CCCCC1n1cccn1` (stereo unspecified), the “% Inhibition” value is recorded as -3% and the Z score is reported as 0.27.
Turning to `O=C(C[C@H]1CCCOC1)N1CCC(Oc2cccc(Cl)c2)CC1`, the “% Inhibition” value is reported as -8% and the Z score is 1.29.
For `COC[C@H]1CCCN(c2nnc(-c3scnc3C)n2CC(C)C)C1` the same measures were -8% and 1.19.
In the case of `CCCN(C(=O)Cc1n[nH]c(=O)[nH]1)[C@H]1CCCC[C@@H]1O`, the “% Inhibition” value is -9% and the Z score amounted to 1.25.
For `CC(C)(C)NC(=O)NCC[C@H](O)c1cccc(Cl)c1`, in that order: -10% and 1.33.
For `Cc1[nH]c(=O)c(C#N)c(C)c1CCC(=O)Nc1ccc2c(c1)OCO2`, in that order: 1% and -0.14.
For `CC(CNC(=O)NC1CCCCC1O)Cc1cccs1` (stereo unspecified) the same measures were -4% and 0.56.
`Cc1cccc(-c2ncccc2CNC(=O)c2ccc3c(c2)OCO3)c1`: the “% Inhibition” value is -2% and the Z score worked out at 0.25.
For `COC[C@H]1CCCN(S(=O)(=O)N2CCCCCCC2)C1` the same measures were -5% and 0.71.
For `CCN(Cc1nnc(C)o1)c1ccccc1`, in that order: -7% and 0.73.
Regarding `O=C([C@@H]1CCCCN1C(=O)CC1(O)CCCC1)N1CCOCC1`, the “% Inhibition” value is 0% and the Z score is 0.06.
As for `O=C(NCCCn1ccnn1)N[C@H]1CCOc2c(F)cccc21`, the “% Inhibition” value worked out at 11% and the Z score is listed as -1.13.
For `NC(=O)c1ccccc1NC(=O)CCN1CCN(c2ncccn2)CC1` the same measures were -8% and 1.49.
For `CCNC(=O)N1CC(C(=O)N2CCN(c3ccccc3F)CC2)CCC1c1ccc(F)c(C)c1` (stereo unspecified), in that order: -7% and 0.98.
For `C#Cc1cccc(NC(=O)CCc2cccc(N(C)C)c2)c1`, the “% Inhibition” value amounted to 0% and the Z score turned out to be 0.07.
For `N#Cc1ccc(NC(=O)O[C@H]2COCCN(c3nc4ccccc4o3)C2)cc1` the same measures were 0% and -0.04.
For `COc1ccccc1[C@H](CC(C)C)NCC#N` the same measures were -9% and 1.39.
For `C[C@H](NCC(=O)Nc1ccc2c(c1)OC1(CCCCC1)O2)c1cccs1`, in that order: -9% and 1.57.
With `C[C@H](NC(=O)c1ccc[nH]1)c1nc(-c2ccncc2)cs1`, the “% Inhibition” value is -3% and the Z score was determined as 0.46.

For the origin of these results see ChEMBL document CHEMBL4888484, “Replenishing the malaria drug discovery pipeline: Screening and hit evaluation of the MMV Hit Generation Library 1 (HGL1) against asexual blood stage Plasmodium falciparum ,using a nano luciferase reporter read-out” (2022).
